For 13 molecules, cell count results are on record in the supplement of paper PMC4604168 (melanoma cell lines).

The list shows a part of the results. Most values come without repeats; read them as rough.
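Note: cell number obtained by counting DAPI-stained nuclei in high-throughput microscope images with image analysis software, screen run in 1,536-well plates.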

This test has as its system WM1745. In words: cell count relative to DMSO control; melanoma cells; higher = more viable cells. The following applies: library dose: low library concentration; 72 h.
Molecule `CC(=O)O[C@@]12CO[C@@H]1C[C@H](O)[C@@]1(C)C(=O)[C@H](O)C3=C(C)[C@@H](OC(=O)[C@H](O)[C@@H](NC(=O)OC(C)(C)C)c4ccccc4)C[C@@](O)([C@@H](OC(=O)c4ccccc4)[C@H]21)C3(C)C` [Docetaxel] + CN(NC(=O)CC(=O)NN(C)C(=S)c1ccccc1)C(=S)c1ccccc1 [STA4783] (first compound 0.0001 µM, partner dose 0.006 µM) came in with a cell count of 40.3%. Next, `CC(=O)O[C@@]12CO[C@@H]1C[C@H](O)[C@@]1(C)C(=O)[C@H](O)C3=C(C)[C@@H](OC(=O)[C@H](O)[C@@H](NC(=O)OC(C)(C)C)c4ccccc4)C[C@@](O)([C@@H](OC(=O)c4ccccc4)[C@H]21)C3(C)C` [Docetaxel] + Cc1ccc(NC(=O)c2cccc(N(C)C)c2)cc1NC(=O)c1ccc(O)cc1 [ZM336372] (first compound 0.0001 µM, partner dose 2 µM): 43.8%; `Nc1ncn([C@H]2C[C@H](O)[C@@H](CO)O2)c(=O)n1` [decitabine] + CO[C@@H]1[C@H](N(C)C(=O)c2ccccc2)C[C@H]2O[C@]1(C)n1c3ccccc3c3c4c(c5c6ccccc6n2c5c31)C(=O)NC4 [Midostaurin] (first compound 0.1 µM, partner dose 0.08 µM): 84%. Next, `Nc1ccn([C@@H]2O[C@H](CO)[C@@H](O)C2(F)F)c(=O)n1` [gemcitabine] + CCc1ccc(CCOc2ccc(CC3SC(=O)NC3=O)cc2)nc1 [pioglitazone] (first compound 0.0004 µM, partner dose 2 µM): 76.5%; `CC(=O)c1c(C)c2cnc(Nc3ccc(N4CCNCC4)cn3)nc2n(C2CCCC2)c1=O` [palbociclib] + C=CCn1c(=O)c2cnc(Nc3ccc(N4CCN(C)CC4)cc3)nc2n1-c1cccc(C(C)(C)O)n1 [MK1775] (first compound 0.04 µM, partner dose 0.02 µM): 78.1%. Next, `CC(=O)c1c(C)c2cnc(Nc3ccc(N4CCNCC4)cn3)nc2n(C2CCCC2)c1=O` [palbociclib] + Oc1cc(-c2nc(-c3ccccc3)[nH]c2-c2ccncc2)ccc1Cl [L779450] (first compound 0.04 µM, partner dose 0.2 µM): 67.9%; `Nc1ncn([C@H]2C[C@H](O)[C@@H](CO)O2)c(=O)n1` [decitabine] + c1cc(-c2cnn3cc(-c4ccc(OCCN5CCCCC5)cc4)cnc23)ccn1 [Dorsomorphin] (first compound 0.1 µM, partner dose 0.4 µM): 99%.

With `Nc1ncn([C@H]2C[C@H](O)[C@@H](CO)O2)c(=O)n1` [decitabine] + O=C(Nc1ccccc1)c1cc([N+](=O)[O-])ccc1Cl [GW9662] (first compound 0.1 µM, partner dose 2 µM), the cell count amounted to 95.6%. Consider `Nc1ncn([C@H]2C[C@H](O)[C@@H](CO)O2)c(=O)n1` [decitabine] + O=C(Nc1cccc(Cl)c1)Nc1ncc(CCNc2ncnc3ccsc23)s1 [SNS314] (first compound 0.1 µM, partner dose 0.0008 µM), for which the cell count turned out to be 79.9%. In turn, `CC(=O)O[C@@]12CO[C@@H]1C[C@H](O)[C@@]1(C)C(=O)[C@H](O)C3=C(C)[C@@H](OC(=O)[C@H](O)[C@@H](NC(=O)OC(C)(C)C)c4ccccc4)C[C@@](O)([C@@H](OC(=O)c4ccccc4)[C@H]21)C3(C)C` [Docetaxel] + Cn1cncc1[C@@](N)(c1ccc(Cl)cc1)c1ccc2c(c1)c(-c1cccc(Cl)c1)cc(=O)n2C [tipifarnib] (first compound 0.0001 µM, partner dose 0.01 µM) had a cell count of 57.6%. On to `Nc1nc(F)nc2c1ncn2[C@@H]1O[C@H](CO)[C@@H](O)[C@@H]1O` [fludarabine] + CC1(C)NC(=O)N(c2ccc([N+](=O)[O-])c(C(F)(F)F)c2)C1=O [nilutamide] (first compound 0.2 µM, partner dose 1 µM), for which the cell count worked out at 90.5%. Next, `Nc1ncn([C@H]2C[C@H](O)[C@@H](CO)O2)c(=O)n1` [decitabine] + O=C(CCCCCCC(=O)Nc1ccccc1)NO [vorinostat] (first compound 0.1 µM, partner dose 0.08 µM): 92%; `CC(=O)c1c(C)c2cnc(Nc3ccc(N4CCNCC4)cn3)nc2n(C2CCCC2)c1=O` [palbociclib] + COc1ccc(-c2ccc3c(N4CCOCC4)nc(N4C[C@@H](C)O[C@@H](C)C4)nc3n2)cc1CO [KU0063794] (first compound 0.04 µM, partner dose 0.02 µM): 79.1%.
